Our source for the z-score values is PubChem BioAssay AID488969 (Vanderbilt High Throughput Screening Facility, 2010).

The structures appear in SMILES notation. In all, about 110,000 compounds were measured (“z-score”: median about -0.1, highest 2% from about 2 on). Some of the results follow. Active and inactive are the calls of the source.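 How the source made its calls: active means z-score in the third read window above 3 or below -3; inactive means the rest.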

This experiment has as its target Metabotropic glutamate receptor 8 (Rattus norvegicus) (UniProt P70579). The experiment is described as follows: mGluR8 Gi/Go-coupled signaling modulation – cell-based, rat, thallium flux, HTS, primary screen (AID 488969). The settings on record: HEK293 rat mGluR8, GIRK (G protein-gated inwardly rectifying potassium channel) thallium flux, FluoZin2; at 10 µM; stronger effect = higher value; submaximal glutamate (EC20) added with thallium.
UniProt P70579, sequence (P70579 whole entry, looked up): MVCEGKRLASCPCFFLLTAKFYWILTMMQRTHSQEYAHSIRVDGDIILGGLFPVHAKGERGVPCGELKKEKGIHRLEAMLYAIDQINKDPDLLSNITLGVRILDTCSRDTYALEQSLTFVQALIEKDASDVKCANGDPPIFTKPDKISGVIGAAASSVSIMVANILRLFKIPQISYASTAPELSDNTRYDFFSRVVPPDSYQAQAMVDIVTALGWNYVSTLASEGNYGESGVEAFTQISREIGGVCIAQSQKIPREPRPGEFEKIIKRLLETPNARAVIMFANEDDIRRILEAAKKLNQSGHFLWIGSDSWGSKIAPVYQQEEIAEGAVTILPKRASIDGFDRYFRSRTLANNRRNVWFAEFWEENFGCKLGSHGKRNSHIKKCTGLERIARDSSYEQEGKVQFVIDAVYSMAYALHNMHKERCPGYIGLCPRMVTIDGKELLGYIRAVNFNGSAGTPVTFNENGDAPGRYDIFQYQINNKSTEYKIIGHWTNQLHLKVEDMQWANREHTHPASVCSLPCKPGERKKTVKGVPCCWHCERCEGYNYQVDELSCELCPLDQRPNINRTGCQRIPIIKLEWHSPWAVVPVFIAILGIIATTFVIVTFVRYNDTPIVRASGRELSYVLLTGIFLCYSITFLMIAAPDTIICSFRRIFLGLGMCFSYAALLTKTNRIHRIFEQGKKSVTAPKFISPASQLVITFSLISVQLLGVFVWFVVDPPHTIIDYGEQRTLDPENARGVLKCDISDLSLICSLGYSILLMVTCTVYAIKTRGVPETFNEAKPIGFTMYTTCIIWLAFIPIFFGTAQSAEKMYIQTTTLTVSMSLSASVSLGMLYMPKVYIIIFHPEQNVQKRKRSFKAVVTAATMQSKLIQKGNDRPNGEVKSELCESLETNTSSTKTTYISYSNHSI
Compound `O=C(COc1ccc(Cl)cc1)NCc1nnc(SCC(=O)NCCc2ccccc2)o1` displayed a z-score of -0.644.
`CCOC(=O)c1cc(C)sc1NC(=S)Nc1ccccc1` had a z-score of 0.88.
The same measure for `Cc1cc(C)n2nc(NCc3ccccc3)nc2n1`: -0.601; for `Cn1c(=O)c2c(nc(SCC(=O)N(C3CCCCC3)C3CCCCC3)n2C)n(C)c1=O`: -0.138.
As to `O=[N+]([O-])c1cc(C(F)(F)F)cc([N+](=O)[O-])c1NCCCNc1ccc([N+](=O)[O-])c2cccnc12`, the z-score is -0.0992.
The same measure for `O=C(O)C1CC=CCC1C(=O)Nc1cccc(C(=O)N2CCCCC2)c1` (stereo unspecified): 0.0928; for `COc1cc(C(C#N)N2CCOCC2)ccc1O` (stereo unspecified): 0.764.
In turn, `CC(=O)Oc1ccc2c(C)cc(=O)[nH]c2c1` had a z-score of 0.128.
The same measure for `COc1ccc(CCNC(C)=O)cc1`: -0.267; for `CCCCS(=O)(=O)/C=C\C1C2C=CC(C2)C1S(=O)(=O)CCCC` (stereo unspecified): 1.17.
The figure for `ClC(Cl)c1nnc(-c2ccccc2)c(-c2c[nH]c3ccccc23)n1` is -0.311; for `Cc1ccc(NC(=S)NCC2CCCO2)cc1` (stereo unspecified) it is 0.197.
Compound `CCN(CC)S(=O)(=O)c1ccc(C)c(C)c1` showed a z-score of -0.337.
The figure for `CCc1ccccc1NC(=O)CCN1C(=O)c2ccccc2C1=O` is -0.102; for `CN(C(=O)CSC1=Nc2ccccc2C2=NC(c3ccccc3)C(=O)N12)C1CCCCC1` (stereo unspecified) it is active: -3.76.
`Cc1nn(C)cc1C(C(=O)NC1CCCCC1)N(C(=O)Cc1cccs1)c1ccc(F)cc1` (stereo unspecified): the z-score came to 0.0114.
Compound `COc1ccc2cc(C(N)=O)/c(=N/NC(=O)c3ccco3)oc2c1` displayed a z-score of -0.177.
In the case of `Cc1ccc(NC(=O)c2ccc(CSc3ccccn3)cc2)cc1`, the z-score is 0.482.
Take `CCCNC(=O)c1ccccc1NC(=O)c1ccccc1N(C)S(=O)(=O)c1ccccc1`: the z-score was -0.459.
The same measure for `COc1cc(C2CC(=O)c3cnc(NC(C)=O)nc3C2)cc(OC)c1OC` (stereo unspecified): -0.201; for `CCn1c(=O)cc(OCC(=O)N2CCN(C(=O)c3ccco3)CC2)c2ccccc21`: -0.137.
In turn, `CC1(C)C(=O)OC(C(=O)c2ccccc2)C(C)(C)C1=O` (stereo unspecified) registered a z-score of -0.295.
Compound `COc1ccc(-c2c3c(nc4sc5c(=O)[nH]c(C)nc5c24)CCC3)cc1` gave a z-score of -0.26.
The same measure for `Cc1c(Cc2ccccc2)c(=O)oc2c(C)c(OCC(=O)Nc3ccc(C#N)cc3)ccc12`: -0.0772; for `O=C(COc1ccccc1C(=O)c1cnn(-c2ccccc2)c1)Nc1ccccc1`: -0.24; for `COC(=O)c1ccc(CSc2nc3c(cnn3-c3ccc(C)cc3)c(=O)[nH]2)o1`: -0.0231.
The figure for `COc1ccccc1NC(=S)N1CCC(c2nc3ccccc3o2)CC1` is -0.331; for `COC(=O)c1ccc(-c2ccc(/C=N/N3C(=O)C4C5C=CC(C6CC56)C4C3=O)o2)cc1` (stereo unspecified) it is -0.269.
The figure for `O=[N+]([O-])c1ccc(OCc2cccc(COc3ccc([N+](=O)[O-])cc3)n2)cc1` is 0.233; for `CCCCN1C2=NCCCN2c2cc(C)c(C)cc21` it is 1.11; for `COc1ccc(OC)c(NC(=O)CCC(=O)Nc2nnc(C(F)(F)F)s2)c1` it is 0.644.
`Cn1cnnc1SCC(=O)NCCc1ccccc1` gave a z-score of 0.161.
The figure for `CCCC1CCc2c(sc(N)c2C(N)=O)C1` (stereo unspecified) is -0.21; for `Cc1ccc(CN(Cc2ccc(C)o2)C(=S)NCC(=O)O)cc1` it is -0.00212.
Turning to `O=C(CCN1CCc2ccccc21)c1ccc2c(c1)OCCO2`, the z-score was -0.0938.
The same measure for `CC(NC(=O)c1ccc(F)cc1)c1ccccc1` (stereo unspecified): -0.251; for `CCOC(=O)c1c(CN2CCN(CCO)CC2)n(C)c2cc(Br)c(OC)cc12`: 0.864; for `CC(Oc1ccc2oc(-c3ccccc3)c(C(=O)O)c2c1)C(=O)O` (stereo unspecified): 0.411.
Compound `COc1ccc(-c2c(C)nn(-c3ccccc3)c2N)cc1` yielded a z-score of -0.173.
In turn, `COc1ccc(C(=O)N/C(=C\c2ccccc2)C(=O)NC(CCSC)C(=O)O)cc1` (stereo unspecified) came in with a z-score of -0.0411.
The same measure for `CCc1nnc(NC(=O)CCN(c2cc(C)cc(C)c2)S(=O)(=O)c2ccc(Cl)cc2)s1`: -0.0322; for `CS(=O)(=O)N(CCc1ccccc1)CC(=O)NCC1CCCO1` (stereo unspecified): -0.312.
The same measure for `CCCc1nnc2c(N(C)S(=O)(=O)c3ccccc3)nc3ccccc3n12`: -0.163.
The same measure for `CC1CCN(C(=O)/C=C/c2ccc(C(C)(C)C)cc2)CC1`: -0.493.
In turn, `Cc1ccc(N=CC2=C(O)CC(c3ccco3)CC2=O)cc1` (stereo unspecified) had a z-score of -0.179.
In turn, `O=C1N=C(N2CCN(c3ccccc3)CC2)S/C1=C\c1cn[nH]c1-c1ccccc1` gave a z-score of -0.34.
The figure for `CCNC(=O)Nn1c(-c2ccccc2)nc2ccccc2c1=O` is 0.247.
The same measure for `O=C(COC(=O)[C@H](Cc1ccccc1)NC(=O)c1cccs1)Nc1c(Cl)cccc1Cl`: -0.462.
`C=CCNC(=O)c1ccccc1NC(=O)Cc1ccccc1[N+](=O)[O-]` gave a z-score of -0.473.
In the case of `O=C(O)CCCNS(=O)(=O)c1cccs1`, the z-score amounted to 0.143.
The compound `Cc1nc(SCC(=O)NCc2ccc3c(c2)OCO3)c(C#N)c2c1CCCC2` returned a z-score of -0.601.
Take `CCOCCSc1nc2c(c(=O)[nH]c(=O)n2C)n1CCCc1ccccc1`: the z-score is -0.352.
The compound `Cc1ccc(-c2nc3ccccc3c(=O)n2CCCn2ccnc2)cc1` gave a z-score of 0.126.
`COC(=O)Cc1c(C)nc2nc(Cc3ccccc3)[nH]n2c1=O` gave a z-score of -1.79.
The same measure for `O=C(c1ccc2nc(N3CCOCC3)sc2c1)N1CCC(Cc2ccccc2)CC1`: -0.938; for `Cn1nnnc1SCC(=O)NC(C)(C)C`: 1.31.
The same measure for `COc1c(Cl)cc(Cl)cc1C(=O)Nc1ccccc1N1CCN(C(C)=O)CC1`: -0.00567; for `O=C1CSC(c2cn(-c3ccccc3)nc2-c2cccs2)N1CC1CCCO1` (stereo unspecified): -0.387.
Consider `CC1(C)CC(=O)C(C=Nc2ccccc2C(=O)O)=C(O)C1`, for which the z-score came out at 0.324.
On to `CCCCc1nc(NCc2ccccc2)c(C#N)c2c1CCCC2`, for which the z-score was -0.231.
The same measure for `COC(=O)CCC(=O)Nc1nnc(C(F)(F)F)s1`: -0.0801; for `O=C(c1cc2c(s1)-c1ccccc1OC2)N1CCN(c2ccccc2)CC1`: 0.106; for `CN(CCOC(=O)/C=C/c1ccccc1)C(C)(C)C`: 0.0413.
The same measure for `S=C(Nc1ccc(Cl)cc1)N1CCCCC1`: -0.262; for `Cc1ccc(OCCCSc2ncccn2)cc1C`: -0.106.
Consider `O=C(COC(=O)C1CC2C=CC1C2)Nc1ccc2c(c1)OC(F)(F)O2` (stereo unspecified), for which the z-score was active: 4.04.
Turning to `O=C(Nc1ccc(Cl)c(Cl)c1)OCc1cccnc1`, the z-score is -0.347.
Turning to `CCCN(CCC)C(=O)NC1CC(=O)N(c2ccc(OC)cc2)C1` (stereo unspecified), the z-score was 0.107.
The figure for `O=C(NCCc1ccc(Cl)cc1)C1CCCN(S(=O)(=O)c2cnc[nH]2)C1` (stereo unspecified) is 0.0211.
The same measure for `COc1ccc(CCNC(=O)NC2CCCCC2)cc1`: -0.00915; for `Cc1ccc(C(=O)/C=C/c2cn(CN3CCN(C)CC3)c3ccccc23)cc1`: 0.255.
